{
  "source": "PubChem BioAssay AID1347043",
  "about": "(National Center for Advancing Translational Sciences (NCATS), 2019)",
  "note": "The whole screen tested about 76,000 compounds, of which about 1,900 (2.5%) were called active. The shares of active, inactive and inconclusive entries below differ from those in the screen. Calls follow the shape of the dose curve; as a rule, active = well fitted inhibition curve with a large enough effect; inconclusive = small, poorly fitted or top-dose-only effect; inactive = flat fitted curve, though single readings scatter. Where the call is inconclusive, the potency comes from a doubtful curve fit.",
  "data": [
    {"target": "Luciferin 4-monooxygenase (Photinus pyralis) (UniProt P08659)", "sequence (P08659 whole entry, looked up)": "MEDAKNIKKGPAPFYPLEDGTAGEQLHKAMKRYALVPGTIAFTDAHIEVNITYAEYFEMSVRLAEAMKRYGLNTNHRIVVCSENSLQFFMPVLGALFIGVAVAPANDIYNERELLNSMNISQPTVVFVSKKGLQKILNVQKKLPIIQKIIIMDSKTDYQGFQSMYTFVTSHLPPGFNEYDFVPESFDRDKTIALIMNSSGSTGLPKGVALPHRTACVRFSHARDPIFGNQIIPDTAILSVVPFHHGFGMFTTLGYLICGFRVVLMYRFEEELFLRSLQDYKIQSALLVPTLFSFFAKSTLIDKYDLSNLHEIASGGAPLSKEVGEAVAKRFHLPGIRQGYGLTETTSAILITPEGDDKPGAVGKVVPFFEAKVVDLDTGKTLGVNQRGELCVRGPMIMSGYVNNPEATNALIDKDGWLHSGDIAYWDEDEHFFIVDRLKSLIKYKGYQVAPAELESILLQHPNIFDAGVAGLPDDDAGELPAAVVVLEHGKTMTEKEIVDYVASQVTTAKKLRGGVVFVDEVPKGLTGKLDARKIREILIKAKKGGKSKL", "assay": "Firefly luciferase inhibition profiling of diverse chemical library using quantitative high-throughput screening; also: nearly all actives have a fitted effect of over 65% in size; also: potency is read from the fitted curve at half-maximal effect; tags tell the direction and shape of the fitted curve", "conditions": "purified P. pyralis luciferase, luminescence, biochemical; series mostly up to 115 µM", "summary_of_the_method": "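Biochemical qHTS: compound (6-point titration) added to 10uM D-luciferin plus 10uM ATP in Tris acetate pH 7.5 buffer with Mg, Tween-20 and BSA, then purified enzyme at 10nM; light output imaged.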", "values": [
      {"molecule": "C[C@]1(CO)C2CC[C@@H](O)[C@@H](CC(=O)N3CCCC3)[C@]2(C)CC[C@H]1OC(=O)Nc1ccccc1", "note": "(stereo not given in full)", "Potency": "inactive"},
      {"molecule": "COC(=O)C(=O)N[C@H]1C[C@@H](Cc2cc(-c3ccc(OC)cc3)on2)C1(C)C", "Potency": "inconclusive: 79.4 µM [inhibitor, partial curve]"},
      {"molecule": "CC(=O)c1cccc(NC(=O)O[C@H]2COCCN(c3nc4ccccc4o3)C2)c1", "Potency": "inconclusive: 63.1 µM [inhibitor, partial curve]"},
      {"molecule": "CN(CC(=O)N1CCc2nc3cc(-c4ccccc4)[nH]n3c(=O)c2C1)S(=O)(=O)c1cnc[nH]1", "Potency": "inconclusive: 39.8 µM [inhibitor, partial curve]"},
      {"molecule": "O=C(Nc1ccc(Cl)cc1)Nc1ccc2n(c1=O)C[C@H]1C[C@@H]2CN(C(=O)c2ccc3ccccc3c2)C1", "Potency": "active: 14.1 µM"},
      {"molecule": "O=C(COc1ccc(F)cc1)N1CCC(n2cc(-c3nc(-c4ccccc4)no3)nn2)C1", "note": "(stereo not given)", "Potency": "inconclusive: 44.7 µM [inhibitor, partial curve]"},
      {"molecule": "CCCNC(=O)N1CC(Oc2ccc(-c3nc(-c4ccccc4)no3)cc2)C1", "Potency": "inconclusive: 0.562 µM [inhibitor, full curve, poor fit]"},
      {"molecule": "COc1ccc(C(C)NC(=O)C2CCN(C(=O)c3ncn4c3COC(c3ccccc3)C4)CC2)cc1", "note": "(stereo not given)", "Potency": "active: 28.2 µM"},
      {"molecule": "CNC(=O)Nc1cccn2nc(-c3ccccc3)nc12", "Potency": "active: 39.8 µM"},
      {"molecule": "COC[C@@H]1CN(Cc2cnn(C)c2C)C[C@H]1c1nc(C2CC2)no1", "Potency": "inconclusive: 44.7 µM [inhibitor, partial curve, poor fit]"},
      {"molecule": "c1ccc(CCc2nnc3n2CCNCC3)cc1", "Potency": "inactive"},
      {"molecule": "COC(=O)[C@@H]1Cc2c([nH]c3ccccc23)[C@H]2C[C@@H](NCCN(C)C)C[C@@H](c3cccc(Cl)c3)N21", "Potency": "inconclusive: 89.1 µM [inhibitor, single point]"},
      {"molecule": "O=C(c1ccc(Br)o1)N1CCC2(CC1)CC(O)CCO2", "note": "(stereo not given)", "Potency": "inactive"},
      {"molecule": "CCc1nc2c(NC(=O)NC3CCCCC3)cccn2n1", "Potency": "inconclusive: 44.7 µM [inhibitor, partial curve, poor fit]"},
      {"molecule": "Cc1cn2nc(C(=O)NCc3ccccc3F)cc2c(=O)[nH]1", "Potency": "inconclusive: 56.2 µM [inhibitor, partial curve]"},
      {"molecule": "Cc1ccc(NC(=O)N2C[C@@H](F)C[C@H]2C(=O)N2CCc3ccccc3C2)cc1", "Potency": "inconclusive: 50.1 µM [inhibitor, partial curve, poor fit]"},
      {"molecule": "Cc1ccc(NC(=O)NCC2CCOCC2)c(Cl)c1", "Potency": "inconclusive: 44.7 µM [inhibitor, partial curve]"},
      {"molecule": "O=C(NC1CC1)C1CCN(C(=O)c2ncn3c2COC(c2ccc(Cl)cc2)C3)CC1", "note": "(stereo not given)", "Potency": "inconclusive: 44.7 µM [inhibitor, partial curve]"},
      {"molecule": "Cc1nc2c(c(-c3ccc(O)cc3)n1)CN(C(=O)c1ccc(C(F)(F)F)cc1)CCC2", "Potency": "inactive"},
      {"molecule": "c1cc(-c2noc(C3CCOCC3)n2)ccc1OC1CNC1", "Potency": "inconclusive: 56.2 µM [inhibitor, partial curve, poor fit]"},
      {"molecule": "O=C(O)c1ccccc1C(=O)N1Cc2[nH]cnc2C[C@H]1c1nc(-c2ccc(C(F)(F)F)cc2)no1", "Potency": "inconclusive: 11.2 µM [inhibitor, partial curve]"},
      {"molecule": "CC(C)C[C@@H]1N[C@H](C(=O)N(C)CCC#N)Cc2c[nH]c3cccc1c23", "Potency": "inactive"},
      {"molecule": "Cc1ccc(NC(=O)Cn2ccn3nc4c(c3c2=O)CC(C)CC4)cc1Cl", "note": "(stereo not given)", "Potency": "inconclusive: 56.2 µM [inhibitor, partial curve, poor fit]"},
      {"molecule": "O=C(Cc1c[nH]c2ncc(-c3ccccc3)cc12)N1CC[S+](=O)([O-])CC1", "Potency": "inconclusive: 79.4 µM [inhibitor, partial curve]"},
      {"molecule": "CCNc1cc(N2CCC(CCC(=O)NCc3cccc(F)c3)CC2)ncn1", "Potency": "inconclusive: 56.2 µM [inhibitor, partial curve]"},
      {"molecule": "COc1ccc(CN2C=C(C(=O)OCc3noc(C4CCCC4)n3)C(C)=NS2(=O)=O)cc1", "Potency": "inconclusive: 11.2 µM [inhibitor, full curve]"},
      {"molecule": "CC(C)N1CCN(C2CCN(c3ccc4c(c3)OCO4)CC2)CC1CCO", "note": "(stereo not given)", "Potency": "inactive"},
      {"molecule": "O=C(CCc1cc(Cl)no1)NCCc1noc(-c2ccccc2)n1", "Potency": "inconclusive: 35.5 µM [inhibitor, partial curve]"},
      {"molecule": "O=C(c1ccccc1Cl)N1CCC(n2cc(-c3nc(-c4ccccc4)no3)nn2)CC1", "Potency": "inactive"},
      {"molecule": "CC(=O)Nc1ccc(CC(=O)N2CCc3c(nc4cc(-c5ccccc5Cl)[nH]n4c3=O)C2)cc1", "Potency": "inconclusive: 50.1 µM [inhibitor, partial curve]"},
      {"molecule": "CC(C)NC(=O)N(C1CC1)C1CCOC2(CCN(C(=O)CCCc3ccccc3)CC2)C1", "note": "(stereo not given)", "Potency": "inconclusive: 44.7 µM [inhibitor, partial curve]"},
      {"molecule": "N#Cc1ccc2nc([C@H]3CCN(Cc4ccccc4)C3)[nH]c2c1", "Potency": "inconclusive: 44.7 µM [inhibitor, partial curve]"},
      {"molecule": "O=C(Cc1ccccc1)N1CCCC(c2noc(COc3ccccc3F)n2)C1", "note": "(stereo not given)", "Potency": "inconclusive: 39.8 µM [inhibitor, partial curve]"},
      {"molecule": "N#Cc1ccc(C(=O)Nc2ccc([C@@H](O)[C@H]3COCC(=O)N3CCCc3ccccc3)cc2)cc1", "Potency": "inconclusive: 39.8 µM [inhibitor, partial curve]"},
      {"molecule": "COCCc1noc(-c2nc(-c3ccc4c(c3)OCO4)no2)n1", "Potency": "active: 17.8 µM"},
      {"molecule": "CCc1nc(-c2c3n(c(=O)n(CC(=O)NCCc4ccccc4)c2=O)CCCC3)no1", "Potency": "inactive"},
      {"molecule": "O=C(Nc1ccccc1)C1=NO[C@@H]2CN(Cc3ccc(O)c(Cl)c3)C[C@H]12", "Potency": "inconclusive: 89.1 µM [inhibitor, partial curve]"},
      {"molecule": "CN(C)c1cccc(-c2cnc3[nH]cc(CC(=O)NCc4cccnc4)c3c2)c1", "Potency": "inconclusive: 44.7 µM [inhibitor, partial curve]"},
      {"molecule": "CN(Cc1ccc(-c2ccccc2)cc1)C(=O)Cc1cccc(Cl)c1", "Potency": "inconclusive: 56.2 µM [inhibitor, partial curve]"},
      {"molecule": "Cc1ccc(-c2cc3c(ccn3C)c(C(=O)NCc3cccnc3)n2)cn1", "Potency": "inactive"}
    ]}
  ]
}
